Reference: patent US5550212A, “Analogues of hGH-RH(1-29)NH2 having antagonistic activity” (The Administrators of the Tulane Educational Fund, priority 1993, dated 1996)
Not every detail of the peptide structures is certain; ends, links or a residue may be inferred. Starred links: 1 amine or outer side, 2 acyl side, 3 side chain; linkers in the order of their positions; H or OH if unused. Non-standard residues stand in square brackets, D forms with d. Residues, ends and D or L forms follow the SMILES beside them. *: point of attachment. Acetyl(1-naphthyl) = O=C(Cc1cccc2ccccc12)*; Tpi = O=C(O)[C@@H]1Cc2c([nH]c3ccccc23)CN1; Phe(4-Cl) = N[C@@H](Cc1ccc(Cl)cc1)C(=O)O; Glutaryl = O=C(CCCC(=O)[*:2])[*:1]; Isobutyryl = CC(C)C(=O)*; Nle = CCCC[C@H](N)C(=O)O; Abu = CC[C@H](N)C(=O)O; Aib = CC(C)(N)C(=O)O

Experiments:
[1] = molecular target: T1, rat pituitary GH-RH receptors (Rattus norvegicus, UniProt Q02644); experiment: GH-RH binding assay, competitive binding on rat anterior pituitary membrane homogenates; conditions: ratio of Ki values, Standard = 1
T1 construct: from tissue; host or cells: rat anterior pituitary (male Sprague-Dawley), crude membranes
T1 sequence (Q02644 23-464): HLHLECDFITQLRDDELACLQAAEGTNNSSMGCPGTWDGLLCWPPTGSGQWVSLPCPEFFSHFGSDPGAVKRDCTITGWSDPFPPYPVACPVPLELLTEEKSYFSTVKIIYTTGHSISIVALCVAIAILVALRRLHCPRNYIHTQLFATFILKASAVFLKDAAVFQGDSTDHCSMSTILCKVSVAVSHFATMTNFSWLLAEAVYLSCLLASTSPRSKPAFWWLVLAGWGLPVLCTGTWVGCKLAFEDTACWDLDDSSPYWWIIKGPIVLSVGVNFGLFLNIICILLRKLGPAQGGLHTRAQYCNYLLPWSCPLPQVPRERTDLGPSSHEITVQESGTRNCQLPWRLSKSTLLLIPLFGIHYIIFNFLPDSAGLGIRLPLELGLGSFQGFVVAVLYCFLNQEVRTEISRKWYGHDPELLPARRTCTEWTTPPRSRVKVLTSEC
Method: GH-RH Binding Assay. A sensitive radioreceptor binding assay was developed to determine the binding characteristics of the antagonists of GH-RH (G. Halmos, A. V. Schally et al., Receptor 3, 87-97, 1993), hereby incorporated by reference. The assay is based on binding of labelled [His^1,Nle^27 ]hGH-RH(1-32)NH2 to rat anterior pituitary membrane homogenates. Iodinated derivatives of [His^1,Nle^27 ]hGH-RH(1-32)NH2 are prepared by the chloramine-T method (F. C. Greenwood et al., Biochemistry 89:114-123, 1963), hereby incorporated by reference. Pituitaries from male Sprague-Dawley rats (250-300 g) are used to prepare crude membranes. For saturation binding analyses, membrane homogenates are incubated with at least 6 concentrations of [His^1,^25 I-Tyr^10,Nle^27 ]hGH-RH(1-32)NH2, ranging from 0.005 to 0.35 nM in the presence or absence of excess unlabelled peptide (1 μM). The pellet is counted for radioactivity in a y-counter. The affinities of the antagonist peptides tested to rat pituitary GH-RH receptors are determined in competitive binding experiments. The final binding affinities are estimated by Ki (dissociation constant of the inhibitor-receptor complex) and are determined by the Ligand PC computer program of Munson and Rodbard as modified by McPherson. Relative affinities compared to [Ac-Tyr^1,D-Arg^2 ]hGH-RH(1-29)NH2, the Standard antagonist, are calculated as the ratio of Ki of the tested GH-RH antagonist to the Ki of the Standard antagonist.

[2] = test system: hGH-RH(1-29)NH2 induced GH release; experiment: Superfused rat pituitary system: inhibition of hGH-RH(1-29)NH2 induced GH release; type: cell-based; conditions: for Inhibition of GH release (%) 0 min: 0 min response; for Inhibition of GH release (%) 30 min: 30 min response; for Inhibition of GH release (%) 60 min: 60 min response; for Inhibition of GH release (%) 120 min: 120 min response
[3] = test system: hGH-RH(1-29)NH2 induced GH release; experiment: In vivo test: serum GH levels in rats pretreated with GH-RH antagonists before hGH-RH(1-29)NH2; design: species or system Sprague-Dawley rats
Method: In Vivo Tests. Adult male Sprague-Dawley rats are anesthetized with pentobarbital (6 mg/100 g b.w., i.p.). Blood samples are taken from the jugular vein 30 min after the injection of pentobarbital. One group of 7 animals receives hGH-RH(1-29)NH2 as control. Other groups of rats are injected with [Ac-Tyr^1,D-Arg^2 ]hGH-RH(1-29)NH2 as Standard antagonist, or with one of the antagonist peptide 30 seconds prior to hGH-RH(1-29)NH2, which is administered at dose of 2-3 μg/kg b.w. Blood samples are taken from the jugular vein 5 and 15 min after the injection of antagonists. GH levels are measured by RIA. Potencies of the antagonists are calculated by the factorial analysis of Bliss and Marks with 95% confidence limits and are based on the doses of 100 and 400 μg/kg b.w. of the Standard antagonist and 20 and 80 μg/kg b.w. of the antagonists tested. Statistical significance was assessed by Duncan's new multiple range test.

Structure (SMILES)	R.A. (relative affinity compared to the Standard antagonist) [1]	Inhibition of GH release (%) 0 min ([2]; dose 10 nM) [%]	Inhibition of GH release (%) 30 min ([2]; dose 10 nM) [%]	Inhibition of GH release (%) 60 min ([2]; dose 10 nM) [%]	Inhibition of GH release (%) 0 min ([2]; dose 30 nM) [%]	Inhibition of GH release (%) 30 min ([2]; dose 30 nM) [%]	Inhibition of GH release (%) 60 min ([2]; dose 30 nM) [%]	Inhibition of GH release (%) 0 min ([2]; dose 100 nM) [%]	Inhibition of GH release (%) 30 min ([2]; dose 100 nM) [%]	Inhibition of GH release (%) 60 min ([2]; dose 100 nM) [%]	also measured
CCCC[C@H](NC(=O)[C@@H](NC(=O)[C@H](CC(=O)O)NC(=O)[C@H](CCC(N)=O)NC(=O)[C@H](CC(C)C)NC(=O)[C@H](CC(C)C)NC(=O)[C@H](CCCCN)NC(=O)[C@H](CCCNC(=N)N)NC(=O)[C@H](C)NC(=O)[C@H](CO)NC(=O)[C@H](CC(C)C)NC(=O)[C@H](CCC(N)=O)NC(=O)[C@H](CC)NC(=O)[C@H](CC(C)C)NC(=O)[C@@H](NC(=O)[C@H](CCCCN)NC(=O)[C@H](CCCNC(=N)N)NC(=O)[C@H](Cc1ccc(O)cc1)NC(=O)[C@H](CO)NC(=O)[C@H](CC(N)=O)NC(=O)[C@@H](NC(=O)[C@H](Cc1ccc(Cl)cc1)NC(=O)[C@@H](NC(=O)[C@H](C)NC(=O)[C@H](CC(=O)O)NC(=O)[C@@H](CCCNC(=N)N)NC(=O)[C@H](Cc1ccc(O)cc1)NC(=O)Cc1cccc2ccccc12)[C@@H](C)CC)[C@@H](C)O)C(C)C)[C@@H](C)CC)C(=O)N[C@@H](CO)C(=O)N[C@@H](CCCNC(=N)N)C(N)=O [Peptide 1, [Nac^0,D-Arg^2, Phe(pCl)^6,Abu^15, Nle^27]hGH-RH(1-29)NH2] ({Acetyl(1-naphthyl)}-Y[dR]DAI[Phe(4-Cl)]TNSYRKVL[Abu]QLSARKLLQDI[Nle]SR-NH2)	82.56	90.3	90	87.1	96.1	95	92.1	23.3	93.9	89.3	duration of action in vitro (in words) [2]: extremely long acting in vitro; inhibition of GH release, of the control value ([2]; 30 nM dose, 4.5 hours after the incubation): 90%; Inhibition of GH release (%) 0 min ([2]; dose 3 nM): 18.1%; Inhibition of GH release (%) 30 min ([2]; dose 3 nM): 31.5%; Inhibition of GH release (%) 60 min ([2]; dose 3 nM): 17.1%; Inhibition of GH release (%) 120 min ([2]; dose 10 nM): 83.1%; Inhibition of GH release (%) 120 min ([2]; dose 30 nM): 88.8%; GH Levels ([3]; antagonist 20.0 μg/kg intravenously before GH-RH(1-29)NH2): 641.2 ± 81.4 ng/mL; GH Levels ([3]; antagonist 80.0 μg/kg intravenously before GH-RH(1-29)NH2): 470.0 ± 46.1 ng/mL; POTENCY (measured against the Standard Antagonist) ([3]; factorial analysis of Bliss and Marks, 95% limits printed below the value): 6.09; inhibition of the GH response to hGH-RH(1-29)NH2 compared with the standard antagonist (in words) ([3]; rats): significant greater and longer-lasting inhibition
CCCC[C@H](NC(=O)[C@@H](NC(=O)[C@H](CC(=O)O)NC(=O)[C@H](CCC(N)=O)NC(=O)[C@H](CC(C)C)NC(=O)[C@H](CC(C)C)NC(=O)[C@H](CCCCN)NC(=O)[C@H](CCCNC(=N)N)NC(=O)[C@H](C)NC(=O)[C@H](CO)NC(=O)[C@H](CC(C)C)NC(=O)[C@H](CCC(N)=O)NC(=O)[C@H](CC)NC(=O)[C@H](CC(C)C)NC(=O)[C@@H](NC(=O)[C@H](CCCCN)NC(=O)[C@H](CCCNC(=N)N)NC(=O)[C@H](Cc1ccc(O)cc1)NC(=O)[C@H](CO)NC(=O)[C@H](CC(N)=O)NC(=O)[C@@H](NC(=O)[C@@H]1Cc2c([nH]c3ccccc23)CN1C(=O)[C@@H](NC(=O)[C@H](C)NC(=O)[C@H](CC(=O)O)NC(=O)[C@@H](CCCNC(=N)N)NC(=O)CCCC(=O)O)[C@@H](C)CC)[C@@H](C)O)C(C)C)[C@@H](C)CC)C(=O)N[C@@H](CO)C(=O)N[C@@H](CCCNC(=N)N)C(N)=O [Peptide 12, [Glt^1,D-Arg^2,Tpi^6,Abu^15,Nle^27]hGH-RH(1-29)NH2] (Glutaryl-[dR]DAI[Tpi]TNSYRKVL[Abu]QLSARKLLQDI[Nle]SR-NH2)	10.73	65.5	33.6	8.5	81	35.6	0	87.9	51.8	42.4	–
CCCC[C@H](NC(=O)[C@@H](NC(=O)[C@H](CC(=O)O)NC(=O)[C@H](CCC(N)=O)NC(=O)[C@H](CC(C)C)NC(=O)[C@H](CC(C)C)NC(=O)[C@H](CCCCN)NC(=O)[C@H](CCCNC(=N)N)NC(=O)[C@H](C)NC(=O)[C@H](CO)NC(=O)[C@H](CC(C)C)NC(=O)[C@H](CCC(N)=O)NC(=O)[C@H](CC)NC(=O)[C@H](CC(C)C)NC(=O)[C@@H](NC(=O)[C@H](CCCCN)NC(=O)[C@H](CCCNC(=N)N)NC(=O)[C@H](Cc1ccc(O)cc1)NC(=O)[C@H](CO)NC(=O)C(C)(C)NC(=O)[C@@H](NC(=O)[C@H](Cc1ccccc1)NC(=O)[C@@H](NC(=O)[C@H](C)NC(=O)[C@H](CC(=O)O)NC(=O)[C@@H](CCCNC(=N)N)NC(=O)[C@H](Cc1ccc(O)cc1)NC(=O)C(C)C)[C@@H](C)CC)[C@@H](C)O)C(C)C)[C@@H](C)CC)C(=O)N[C@@H](CO)C(=O)N[C@@H](CCCNC(=N)N)C(N)=O [Peptide 13, [Ibu^0,D-Arg^2,Aib^8,Abu^15,Nle^27]hGH-RH(1-29)NH2] (Isobutyryl-Y[dR]DAIFT[Aib]SYRKVL[Abu]QLSARKLLQDI[Nle]SR-NH2)	4.13	25.3	1.3	4.9	64.1	17.5	21	87.9	63.6	51.3	–
CCCC[C@H](NC(=O)[C@@H](NC(=O)[C@H](CC(=O)O)NC(=O)[C@H](CCC(N)=O)NC(=O)[C@H](CC(C)C)NC(=O)[C@H](CC(C)C)NC(=O)[C@H](CCCCN)NC(=O)[C@H](CCCNC(=N)N)NC(=O)[C@H](C)NC(=O)[C@H](CO)NC(=O)[C@H](CC(C)C)NC(=O)[C@H](CCC(N)=O)NC(=O)[C@H](CC)NC(=O)[C@H](CC(C)C)NC(=O)[C@@H](NC(=O)[C@H](C)NC(=O)[C@H](CCCNC(=N)N)NC(=O)[C@H](Cc1ccc(O)cc1)NC(=O)[C@H](CO)NC(=O)[C@H](CC(N)=O)NC(=O)[C@@H](NC(=O)[C@H](Cc1ccc(Cl)cc1)NC(=O)[C@@H](NC(=O)[C@H](C)NC(=O)[C@H](CC(=O)O)NC(=O)[C@@H](CCCNC(=N)N)NC(=O)[C@H](Cc1ccc(O)cc1)NC(=O)C(C)C)[C@@H](C)CC)[C@@H](C)O)C(C)C)[C@@H](C)CC)C(=O)N[C@@H](CO)C(=O)N[C@@H](CCCNC(=N)N)C(N)=O [Peptide 15, [Ibu^0,D-Arg^2,Phe(pCl)^6,Ala^12,Abu^15,Nle^27]hGH-RH(1-29)NH2] (Isobutyryl-Y[dR]DAI[Phe(4-Cl)]TNSYRAVL[Abu]QLSARKLLQDI[Nle]SR-NH2)	4.44	4.5	12.8	0	57.2	8.4	1.9	83.6	60.2	60.3	–
